Results from patent US8222257B2, “Phosphono-pent-2-en-1-yl nucleosides and analogs” (The Regents of the University of California, priority 2005, dated 2012).

Key:
HCMV AD169 = HCMV AD169 plaque reduction assay in HFF cells; conditions: Human betaherpesvirus 5
vaccinia WR = assay: microbe, parasite or virus in culture; conditions: Orthopoxvirus vaccinia, HFF, read-out: Vaccinia EC50, vaccinia WR, plaque reduction assay in HFF cells
cowpox Brighton = assay: organism not typed; conditions: HFF, read-out: Cowpox EC50, cowpox Brighton, plaque reduction assay in HFF cells

Compound | EC50 (HCMV AD169) [µM] | EC50 (vaccinia WR) [µM] | EC50 (cowpox Brighton) [µM]
CCCCCCCCCCCCCCCCOCCCOP(=O)(O)CC/C=C\Cn1cnc2c(N)ncnc21 [HDP-PPen-A] | > 20 | 39.4 | > 20
CCCCCCCCCCCCCCCCOCCCOP(=O)(O)CC/C=C\Cn1ccc(N)nc1=O [HDP-PPen-C, (3Z)-3-(hexadecyloxy)propyl hydrogen 5-(4-amino-2-oxopyrimidin-1(2H)-yl)pent-3-enylphosphonate] | 2.9 | > 20 | > 20
CCCCCCCCCCCCCCCCOCCCOP(=O)(O)CC/C=C\Cn1cnc2c(=O)[nH]c(N)nc21 [HDP-PPen-G, (Z)-3-(hexadecyloxy)propyl hydrogen 5-(2-amino-6-oxo-1,6-dihydropurin-9-yl)pent-3-enylphosphonate] | 0.73 |  | 
CCCCCCCCCCCCCCCCOCCCOP(=O)(O)CC/C=C\Cn1cc(C)c(=O)[nH]c1=O [HDP-PPen-T] | 0.64 | > 20 | > 20
CCCCCCCCCCCCCCCCOCCCOP(=O)(O)CC/C=C\Cn1ccc(=O)[nH]c1=O [HDP-PPen-U, (3Z)-3-(hexadecyloxy)propyl hydrogen 5-(3,4-dihydro-2,4-dioxopyrimidin-1(2H)-yl)pent-3-enylphosphonate] | > 20 | > 100 | > 100
Nc1ncnc2c1ncn2CC=CCCP(=O)(O)O [PPen-A, 9-(5-Phosphono-pent-2-en-1-yl)-adenine] | > 100 | > 100 | > 100
Nc1ccn(CC=CCCP(=O)(O)O)c(=O)n1 [PPen-C, 1-(5-Phosphono-pent-2-en-1-yl)cytosine] | > 100 | > 100 | > 100
Nc1nc2c(ncn2CC=CCCP(=O)(O)O)c(=O)[nH]1 [PPen-G, 9-(5-Phosphono-pent-2-en-1-yl)-guanine] | 68.4 | > 100 | > 100
Cc1cn(CC=CCCP(=O)(O)O)c(=O)[nH]c1=O [PPen-T, 1-(5-Phosphono-pent-2-en-1-yl)-thymine] | > 100 | > 100 | > 100
O=c1ccn(CC=CCCP(=O)(O)O)c(=O)[nH]1 [PPen-U, 1-(5-Phosphono-pent-2-en-1-yl)-uracil] | > 100 | > 100 | > 100
